# Data taken from PMC12136788.
# The list shows a part of the results.
# B1: chr18:48447474:48447475:+_ENSG00000082212_ENST00000321341|hu_mus|FALSE|FALSE (ssRNA)
# RNA: GGGAGUUCUACAGUCCGACGAUCCCAGAUCUUUCUCUGCGCCUCCUCUUCUGAGAGACCACUUUCCACCAUUGAUAGAACUAUGAGAUUGGCAAUUCCAAGUGCAGCUUCUCCUGCUCCAAGAAAUAAGAUUUUGUGUUCUGACAACAGAGGAUUGAGCAUCA
# B2: 64394397_64394517_860_CDS_ENSG00000118482_ENST00000393387|human|control|control (ssRNA)
# RNA: GGGAGUUCUACAGUCCGACGAUCAUCAUUUUGUUCAUGUUCUUCUUUAUCUGAAAACUUAAACAAUGGACUACCAACAGGCUUGGCUUUACAUUCCAUCAAAGCUUCAUUUUUCUUUUCUCCAAUAGUAACACAAGUCUCUGACAACAGAGGAUUGAGCAUCA
# B3: chr4:148551591:148551592:-_ENSMUSG00000063077_ENSMUST00000060537|mus_hu|mus_mus_mus_hu_False|28_48 (ssRNA)
# RNA: GGGAGUUCUACAGUCCGACGAUCACCUGACAAAAUUAAAUAUCCCUGUAAAUUAGACAAUAAGCAGCAGGCAACAAAGUCUUUGCUUUGAAAUAUGUGCCAGGAAAAAUCAUGUUUUUUUUAGAUCUCAAGAGACAGUUCACACAACAGAGGAUUGAGCAUCA
# B4: chr12:16048344:16048345:+_ENSG00000023734_ENST00000419869|hu_hu|hu_hu_hu_mus_True|78_78 (ssRNA)
# RNA: GGGAGUUCUACAGUCCGACGAUCAGAUCGUCCAUAAGUAAUAACCAAAAUCUCUCCCUCAGGAAUAUACUCCAUGCUGCUAACAGACAUAUUAAAAUUCAGAGAUUUCACUUCUGUCAUUGUGGCAUGAUCCCAGAGCCGAACCAACAGAGGAUUGAGCAUCA
# B5: 110098843_110100180_2223_3pUTR_ENSMUSG00000032481_ENSMUST00000088716|mouse|control|control (ssRNA)
# RNA: GGGAGUUCUACAGUCCGACGAUCCUUCAACCAAUUCCAGGGGUACUUCUUCUCGGACACGAGAAAACUCCUCCAACGCUGCUUUUGCUGCAGCAGAUGCUACACGGGGGUCAACGACAGAUGCUAAAAAGGCAACAGUGCUCACAACAGAGGAUUGAGCAUCA
# B6: chrX:71482573:71482574:-_ENSMUSG00000031328_ENSMUST00000144429|mus_mus|motif|central (ssRNA)
# RNA: GGGAGUUCUACAGUCCGACGAUCCUCCCACUGAAAAUGGACUCUUGGGGAUGUGAUCUCCUCCAUAAGUGACAUUGACACCGGCUGGGCCCUGCUGCACAGGAAUGUACUUGACUGUGUAGGUAUUAUCAUGGUGGUCAAUGACAACAGAGGAUUGAGCAUCA
# B7: chr3:107877451:107877452:-_ENSMUSG00000027889_ENSMUST00000078912|mus_hu|FALSE|FALSE (ssRNA)
# RNA: GGGAGUUCUACAGUCCGACGAUCGCCCCGUGCCCACAGCAGAGGUGUAGAGGUCCCCCGCCUGCCCCUCGGCUACAUGAACAAGACAGGGGCCUAAACUUCGGCCCUGGCCAAGGCUUAGAUUUGCCCAGGAAGGACCGGAAACAACAGAGGAUUGAGCAUCA
# B8: 30676126_30679462_2817_CDS_ENSG00000137337_ENST00000376406|human|control|control (ssRNA)
# RNA: GGGAGUUCUACAGUCCGACGAUCUAGGGUACCUGUUGUCUGGAAGCUGCAAUGGGAAGGGCCAAGCUCUUGGGGUGGAGUCAACAUGAAGGCCUGGGUAGGUUCAUCCUCCAUGCUCUGGACUGCUUCCAGGCCCUGAUUCUCCAACAGAGGAUUGAGCAUCA
# B9: chr7:135832182:135832183:+_ENSMUSG00000042105_ENSMUST00000118605|mus_mus|FALSE|FALSE (ssRNA)
# RNA: GGGAGUUCUACAGUCCGACGAUCGACAAUGGUCGCAUAAAAAGCGCUGUCUUCCGGGGACAUUAACAUCAAGCUUUGGAAAAGAAGUAAUUUACAGGAAAAAUACAGCCCCACUGGCACUUUAACCAUAAGUCCUGCAAAAAGCAACAGAGGAUUGAGCAUCA
# B10: chr3:176767854:176767855:-_ENSG00000177565_ENST00000430069|hu_hu|hu_hu_hu_mus_False|58_88 (ssRNA)
# RNA: GGGAGUUCUACAGUCCGACGAUCGACAUCCUUGUUACUGGGCACGUCUUGCCCUCCUUCCCGUAUGCAGUGUCUAAGUACUAACUGCGUAGGGCCACUCGUGCUGUUCUCACUGAGGUUCCAGAUUCUUGCCGUGGAGUCUCCCAACAGAGGAUUGAGCAUCA
# B11: chr20:21312971:21312972:+_ENSG00000088930_ENST00000377191|hu_mus|FALSE|FALSE (ssRNA)
# RNA: GGGAGUUCUACAGUCCGACGAUCUCCAAACUGAUUACAAAGAGCACAUGGUUUAGGUUUAUUUGGUUUGAAUUCUUCUCUGAUUAUGGUGAAGUUAGGUUCAUGUGUAGCAAGACCAAGCAUAAUUAGAUCAGCAUCAGCUCCCAACAGAGGAUUGAGCAUCA
# B12: chr7:150253694:150253695:+_ENSMUSG00000037706_ENSMUST00000037941|mus_mus|FALSE|FALSE (ssRNA)
# RNA: GGGAGUUCUACAGUCCGACGAUCAAGUGCAUUGAAGGCAUAAGAGGGCUUACAAACCCAGCUCUUGAAAUGGAGGCAGGAAAGGAACAAAGAUUAAAAAGAUGUGAGCAAUGUGACCCACAGUGGGUUGAGUGGGUGGGCAUGCAACAGAGGAUUGAGCAUCA
# B13: 89843522_89849957_2958_CDS_ENSMUSG00000002489_ENSMUST00000163370|mouse|control|control (ssRNA)
# RNA: GGGAGUUCUACAGUCCGACGAUCCUUCUCAAUGUGGAUAUUCUGGGUGACUUUUGGACAGAUUUCAAUUUCUUUGUAAAGCAGCUCGUAAAUGUCCUCCUCGGGCUGCGGGAUGUAGAACUGCACUCUGUUCUCCAUUAGGAACAACAGAGGAUUGAGCAUCA
# B14: chr12:105536279:105536280:+_ENSG00000136051_ENST00000332180|hu_mus|hu_hu_hu_mus_True|8_78 (ssRNA)
# RNA: GGGAGUUCUACAGUCCGACGAUCAGCACUGAACAUGUAAUGUAAUCUGGCUGCAUCAACAGCAUUUUCAUAUACAUCAUCUAAAUAAAUCGGGAAGACAGCGCGAUGCCAGUAUAAAAAACAGCAGUCACAUUGUGCUUGGACCAACAGAGGAUUGAGCAUCA
# B15: chr12:25741899:25741900:+_ENSMUSG00000036333_ENSMUST00000066652|mus_mus|FALSE|FALSE (ssRNA)
# RNA: GGGAGUUCUACAGUCCGACGAUCCAAGUCUGUCUGGAAGAGACUAGGCCGUUCUGAAGACUUCUUGCCUGGGAGCAGCUUACUACCUGACUGGUCGGAUUUCUCAUCUUCCUCAGUAAUGGGGUCCAGGGGUGAGGCCUCAUUCAACAGAGGAUUGAGCAUCA
# B16: chr7:72441615:72441616:-_ENSMUSG00000030516_ENSMUST00000102592|mus_mus|FALSE|FALSE (ssRNA)
# RNA: GGGAGUUCUACAGUCCGACGAUCUCAAACAUCUCAGAUGCACAGCCCAAAGAACAGAAGACUGCCACUCCCCCUGUCAAAAAAAUAUUUUAAGUCACACCAUUAUUUUCUUCCAGGUAAUUUGCACAUUUCUGAAACCAUCAACAACAGAGGAUUGAGCAUCA
# B17: chr7:54825262:54825263:-_ENSG00000132432_ENST00000352861|hu_hu|hu_hu_hu_mus_False|18_58 (ssRNA)
# RNA: GGGAGUUCUACAGUCCGACGAUCCUGCCGGCUGGGCUCCACAAACUGCAUUACCUGAUCCAUGUUUGUUGGAUGGCACACCUAAAACGUAGAGACACGUAGCUCAGGAGAGAACCGGAUGGAGGCCAACCGGAAGCUGGCAACCAACAGAGGAUUGAGCAUCA
# B18: 68225485_68225605_2997_CDS_ENSG00000072736_ENST00000346183|human|control|control (ssRNA)
# RNA: GGGAGUUCUACAGUCCGACGAUCGCUCACAGUUGCCCCAUCAGGUGGAAAUGACGCUGGAUCACACAAACUGUGACAUAUUAAGGAUGAAGGUGCAGAAAGACCCCCCUGGCCCGUACUUUGUGCUUGAGUUGAGUGCUGUCCCAACAGAGGAUUGAGCAUCA
# B19: chr3:139075817:139075818:+_ENSG00000175110_ENST00000310776|hu_mus|motif|central (ssRNA)
# RNA: GGGAGUUCUACAGUCCGACGAUCUCAGGAUGCUGCGGAAUGACUGGUAACUAUUUCUUGAUAAGUUUGAAGUGCGGAUUCGGUAUAUGCUCCUCUCUGUGCUUCUGUUUUUGCGAAGACCUUAAUUAAGUCGACUCCCUCAGCCAACAGAGGAUUGAGCAUCA
# B20: chr11:23509083:23509084:-_ENSMUSG00000042208_ENSMUST00000043356|mus_mus|motif|central (ssRNA)
# RNA: GGGAGUUCUACAGUCCGACGAUCUGUGCCCCACAAACGCCAAUAAACAUCUCUCCAAGAUUUUAAUUCUUCAAAAAGACGGUUCAAAUAUUCAUGUACAUCCCAGGUUUUAUCUCUUAUGUGGAUGUAGAUAAUAUUUCCAUGCAACAGAGGAUUGAGCAUCA
# B21: 122213812_122213932_1365_3pUTR_ENSG00000188735_ENST00000449592|human|control|control (ssRNA)
# RNA: GGGAGUUCUACAGUCCGACGAUCCUCCCUGAGGCUUCAGGCCCCAUCCCCAGGAAGACUGGCCCGGCCUCAGCCACCUUCAAGCACAGGAGUGAGGCCUCGGGUUCCAGGGACGAUGGGGGACCCAGCAUUAAAUAUGUCAUACAACAGAGGAUUGAGCAUCA
# B22: chr8:29959424:29959425:+_ENSG00000104660_ENST00000321250|hu_mus|motif|central (ssRNA)
# RNA: GGGAGUUCUACAGUCCGACGAUCGAAGGGCACAUCCAAGCAUCAGGAACAUCAGCCCGAUCGCUCCUCCAAAGGACAAACGGAUUAAAGCUUUGAUGCCCGCCAUGGCGGUGACGUCGCUCCUGGCUCCACGACCCGGGCGGUCAACAGAGGAUUGAGCAUCA
# Target: T1, UNK ZnF1-3 (human, UniProt Q9C0B0 31-174)
# T1 sequence: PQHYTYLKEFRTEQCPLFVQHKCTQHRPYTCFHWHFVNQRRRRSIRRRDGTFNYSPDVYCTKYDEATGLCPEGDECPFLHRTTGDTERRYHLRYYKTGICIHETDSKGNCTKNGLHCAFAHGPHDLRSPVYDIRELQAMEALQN
# Experiment: nsRBNS (natural sequence RNA bind-n-seq); RBNS binding buffer (assumed for nsRBNS): 25 mM Tris pH 7.5, 150 mM KCl, 3 mM MgCl2, 0.01% Triton X-100, 500 ug/ml BSA, 20 U/ml SUPERase-In, 4 C; UNK is unkempt and MSI1 is Musashi-1; names of the RNAs are library labels; protein concentration not given here; high values mean tight binding
row,Binder,binding signal [enrichment R]
1,B1,0.835
2,B2,0.643
3,B3,0.975
4,B4,1.23
5,B5,0.864
6,B6,0.906
7,B7,0.865
8,B8,0.679
9,B9,1.86
10,B10,0.575
11,B11,1.26
12,B12,2.15
13,B13,0.833
14,B14,3.28
15,B15,0.603
16,B16,2.78
17,B17,0.774
18,B18,1.39
19,B19,0.717
20,B20,0.688
21,B21,1.08
22,B22,1.33
